In all, about 150,000 compounds went through this assay and about 540 (0.36%) showed an effect of 50% or more. This is one part of the list.

The test relates to Plasmodium falciparum. The test can be described thus: Primary screen in NF54 nanoGlo assay, in single point, at 2uM, 72h; a lower Z score goes with more inhibition. The format is functional, Erythrocyte. Conditions: timepoint 72 hour.
`Cc1ccc(C2CCN(C(=O)CCS(C)(=O)=O)CC2)cn1`: the “% Inhibition” value was 13% and the Z score is recorded as -1.69.
For `O=C(c1ccc[nH]1)N1CCC[C@H](c2[nH]ncc2Cc2ccccc2)C1`, in that order: -14% and 1.27.
For `O=C(c1nnc2n1CCCC2)N1CCc2[nH]nc(-c3cccc(F)c3F)c2C1`, in that order: -6% and 0.91.
For `Cc1nc2ccccn2c1CC(=O)NCc1cccnc1N1CCOCC1`, in that order: -4% and 0.77.
Turning to `CC(C)Cc1nnc(NC(=O)c2cc3c(s2)CCC3)s1`, the “% Inhibition” value came to 3% and the Z score is listed as -0.48.
Consider `O=C1CCN([C@@H](C(=O)N2CCCC2)c2ccccc2)CCN1`, for which the “% Inhibition” value is -5% and the Z score turned out to be 0.72.
As for `Cc1ncsc1C(=O)N(C)Cc1ccc(-n2cccn2)cc1`, the “% Inhibition” value is reported as -5% and the Z score worked out at 0.86.
For the molecule `CC[C@H](C)N(CCC(=O)Nc1nnc(-c2cccc(OC)c2)s1)C(=O)c1ccc2ccccc2c1`, the “% Inhibition” value is recorded as -17% and the Z score was found to be 1.75.
On to `CN(C(=O)Cc1cnn(-c2ccccc2)c1)[C@H]1CCS(=O)(=O)C1`, for which the “% Inhibition” value is recorded as -3% and the Z score is listed as 0.61.
As for `Cc1cccc(CS(=O)(=O)N(C)c2ccccc2)c1`, the “% Inhibition” value is -10% and the Z score was found to be 1.88.
Turning to `CC[C@H]1COCCN1C(=O)CCCn1ccnc1`, the “% Inhibition” value is recorded as -9% and the Z score is reported as 1.67.
As for `CNC(=O)c1ccc(-c2ccc(NC[C@H]3CCCO3)nc2)cc1C`, the “% Inhibition” value is reported as -5% and the Z score amounted to 0.85.
As to `Cc1[nH]ccc1C(=O)Nc1cccc(-c2nncn2C)c1C`, the “% Inhibition” value was 4% and the Z score is -0.68.
On to `CC(C)Cc1cc(C(=O)N[C@H]2CC=CC[C@@H]2C(N)=O)nc(N)n1`, for which the “% Inhibition” value was -9% and the Z score turned out to be 1.21.
For the molecule `C[C@@H](CNC(=O)c1cc2cc(Cl)ccn2n1)N1CCN(C)CC1`, the “% Inhibition” value turned out to be 1% and the Z score is -0.17.
For `Cn1nccc1C(=O)NC[C@H]1CCCN(c2ncc(F)c(N3CCOCC3)n2)C1`, in that order: 10% and -1.41.
As for `Cc1ccccc1NC(=O)Nc1cnc(Oc2ccccc2F)nc1`, the “% Inhibition” value is on record as -10% and the Z score worked out at 1.9.
With `C=C(C)CN(CC)C(=O)C(=O)Nc1ccncc1C`, the “% Inhibition” value is -10% and the Z score was determined as 1.38.
Consider `Cc1ccc(-c2nn(C(C)(C)C)c3ncnc(NS(=O)(=O)c4ccc(Cl)cc4)c23)cc1`, for which the “% Inhibition” value is -3% and the Z score worked out at 0.35.
Turning to `CCc1nnc(-c2csc(S(=O)(=O)Nc3ccc(F)c(Cl)c3)c2)o1`, the “% Inhibition” value is 11% and the Z score is -1.29.
For `c1cncc(-c2cnn3cc(-c4ccncc4)cnc23)c1`, in that order: -2% and 0.46.
With `CO[C@H]1C[C@H]2CC[C@@H](C1)N2Cc1noc(-c2ccccc2)n1`, the “% Inhibition” value is on record as -9% and the Z score was determined as 1.19.
On to `Cc1ccc(-c2cc(C(=O)Nc3nnc(C(C)C)s3)no2)cc1F`, for which the “% Inhibition” value was 29% and the Z score was -7.07.
Regarding `O=C(NC[C@H](O)c1ccccc1F)c1cccc(-n2cccn2)n1`, the “% Inhibition” value was found to be 0% and the Z score is given as -0.05.
As to `O=C(NCCc1cccs1)NC1CCCC1`, the “% Inhibition” value is given as -5% and the Z score worked out at 0.8.
`N#CCCN1C(=O)C[C@@H](c2ccc(C(F)(F)F)cc2)NC1=O`: the “% Inhibition” value was -17% and the Z score is given as 3.3.
As to `C[C@@H](c1nc(C2CC2)no1)n1ccc(C(F)(F)F)n1`, the “% Inhibition” value was 8% and the Z score is -1.55.
On to `Cc1ncsc1C(=O)Nc1ccc(=O)n(Cc2ccc(Cl)c(Cl)c2)c1`, for which the “% Inhibition” value is listed as -13% and the Z score stood at 1.76.
`Cc1nn(C/C(N)=N/O)c(C)c1Br`: the “% Inhibition” value is -39% and the Z score was 4.57.
The matching figures for `COc1cccc(Cn2cnn(C(C)(C)C)c2=O)n1`: 7% and -0.96.
With `O=C(Nc1ccccc1)c1nnc(C(=O)N2CCC[C@H](C(=O)NC3CCCCCC3)C2)s1`, the “% Inhibition” value is on record as -25% and the Z score is listed as 2.18.
For the molecule `COCCN(CCC#N)c1ccnc(C(C)(C)C)n1`, the “% Inhibition” value is -11% and the Z score is 1.21.
In the case of `O=C(NCCN1CCC[C@H](CO)C1)c1sccc1Cl`, the “% Inhibition” value came to 6% and the Z score was -0.81.
Turning to `O=C([C@@H](O)Cc1ccccc1)N1CCC(F)(c2ccccn2)CC1`, the “% Inhibition” value is given as -6% and the Z score is 0.81.
For `Cc1c(NC(=O)COc2ccc(F)c(F)c2)cnn1C1CCCC1`, the “% Inhibition” value is on record as -15% and the Z score was 1.9.
In the case of `Cc1cc(C)cc(CN2CCCN(c3ccc(NC(=O)OCc4ccccc4)cc3)C2=O)c1`, the “% Inhibition” value is given as -14% and the Z score worked out at 2.09.
Turning to `O=C(Nc1cccnc1)NC1CCC2CCCCC2C1` (centres undefined), the “% Inhibition” value worked out at 4% and the Z score is reported as -0.44.
As to `O=C(CN1CCC(n2cncn2)CC1)NCc1ccccc1F`, the “% Inhibition” value was -36% and the Z score is on record as 4.27.
For `C[C@H](NC(=O)c1n[nH]c(=O)c2ccccc12)c1nnc2n1CCCCC2`, in that order: 1% and -0.09.
As for `c1ccc(-c2ncc(CNC[C@H]3CCc4nncn4C3)cn2)cc1`, the “% Inhibition” value came to 1% and the Z score is recorded as -0.1.
For the molecule `CCC(=O)N1CC[C@H](NC2CCCCCC2)C1`, the “% Inhibition” value is on record as -8% and the Z score was found to be 1.12.
As for `CCCc1[nH]nc(-c2ccc3c(c2)OCO3)c1NC(=O)c1c(OC)cccc1OC`, the “% Inhibition” value was -2% and the Z score was determined as 0.28.

By % Inhibition is commonly meant the drop in the measured response relative to a control, in per cent.

These data come from ChEMBL document CHEMBL4888484, “Replenishing the malaria drug discovery pipeline: Screening and hit evaluation of the MMV Hit Generation Library 1 (HGL1) against asexual blood stage Plasmodium falciparum ,using a nano luciferase reporter read-out” (2022).
